Here are results for two compounds from PubChem BioAssay (NCI).

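Values below derive from 48-hour exposures of cells grown in 96-well plates, with endpoints linearly interpolated between the two concentrations bracketing the appropriate inhibition level. GI50 = concentration required for 50% inhibition of growth. TGI denotes the concentration required for complete inhibition of growth.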 Some results are limits rather than exact numbers.

The test system of this experiment is NCI-H322M lung. Nature of the experiment: DTP human tumour cell line panel, 48 h.

A word on the GI50: it is the concentration that inhibits growth by half. By TGI is commonly meant the concentration giving total growth inhibition. A high value points to lower sensitivity of the cells. Consider `CC12OOC(C)(OO1)C2CCC(=O)OCCNc1ccnc2cc(Cl)ccc12` (centres undefined), for which the GI50 was greater than 18.3 µM and the TGI is greater than 18.3 µM.

`COc1ccc(-c2ccnc(SCc3cc4ccccc4[nH]c3=O)n2)cc1OC`: the GI50 was 13.5 µM and the TGI amounted to 31.5 µM.
